Patent publication US10626421B2, “Use of uric acid for culturing bacteria sensitive to oxygen tension” (FONDATION MEDITERRANEE INFECTION, priority 2014, dated 2020)

System: Bifidobacterium brevis
Test: Comparative aerobic culture on Schaedler 0.2% agar (Table 2)
Details: 37° C., AA 1 g/L, UA 400 mg/L

| Structure (SMILES) | colonies detected with the naked eye at t=96 h |
| --- | --- |
| O=C1O[C@H]([C@@H](O)CO)C(O)=C1O [ascorbic acid, reference compound] | 0 |
| O=c1[nH]c(=O)c2[nH]c(=O)[nH]c2[nH]1 [uric acid, 7,9-dihydro-1H-purine-2,6,8(3H)-trione] | Positive |
